Test systems include SkMel28; SkMel2; SkMel30; SkMel5; UACC257; UACC62; WM115; WM1716; WM3526; WM1745.
Assay in all cases: cell count relative to DMSO control; melanoma cells; higher = more viable cells
What all share (conditions): library dose: standard library concentration; 72 h

Some of the results follow. Many values rest on one well or one pass, so single values are uncertain.
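Note: cells treated in 1,536-well plates, then fixed and DAPI-stained, with nuclei counted from automated high-throughput microscope images.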

`O=C(O)[C@@H]1[O][Sb](=[O])([O][Sb]2(=[O])[O][C@H]([C@H](O)CO)[C@H](O)[C@H](C(=O)O)[O]2)[O][C@H]([C@H](O)CO)[C@@H]1O` (stereo not given in full) [stibogluconate] + CC(C)CCN1c2nc(Nc3cc(F)c(O)c(F)c3)ncc2N(C)C(=O)C1C [BID1870] (first compound 10 µM, partner dose 1 µM): the cell count with SkMel28 was determined as 73.3%; with SkMel2, 123%; in the test with SkMel30, 105%; with SkMel5 it was 79.7%; in the test with UACC257, 100%; with UACC62 it was 84.9%. The cell count with WM115 was determined as 127%; in the test on WM1716, 68%; in the test with WM3526 it was 85.8%.
Consider `O=C(O)c1ccc2c(c1)nc(Nc1cccc(Cl)c1)c1ccncc12` + O=S(=O)(c1ccccc1)N(CC(F)(F)F)c1ccc(C(O)(C(F)(F)F)C(F)(F)F)cc1 [T0901317] (first compound 2 µM, partner dose 7 µM), for which the cell count came out at 53.2% with SkMel28; 67.3% with SkMel2; 66.6% with SkMel30; 48.1% in the test with SkMel5; 79.4% with UACC257; 75.5% with UACC62. Also, the cell count was 81.2% in the test on WM115, 85.9% in the test on WM1716 and 56.5% with WM3526.
`O=C(O)c1ccc2c(c1)nc(Nc1cccc(Cl)c1)c1ccncc12` + O=c1cc(-c2cccc3c2Sc2ccccc2S3)oc(N2CCOCC2)c1 [KU55933] (first compound 2 µM, partner dose 5 µM): the cell count with SkMel28 was 61.8%; with SkMel2, 75.1%; in the test with SkMel30 it was 73.5%; with SkMel5, 68.3%; in the test with UACC257 it was 79.8%; with UACC62 it was 60.1%. For the same compound, the cell count amounted to 76.7% in the test with WM115, 72.9% with WM1716 and 72.8% in the test on WM3526.
In the case of `O=C(O)[C@@H]1[O][Sb](=[O])([O][Sb]2(=[O])[O][C@H]([C@H](O)CO)[C@H](O)[C@H](C(=O)O)[O]2)[O][C@H]([C@H](O)CO)[C@@H]1O` (stereo not given in full) [stibogluconate] + CCN(CC)CCCCNc1ncc2cc(-c3cc(OC)cc(OC)c3)c(NC(=O)NC(C)(C)C)nc2n1 [PD173074] (first compound 10 µM, partner dose 0.5 µM), the cell count in the test with SkMel28 was determined as 117%; with SkMel2 it was 96.5%; with SkMel30, 91.5%; in the test on SkMel5, 84.7%; with UACC257, 118%; in the test on UACC62, 97.4%. Also, the values for the cell count in the test on WM115, in the test with WM1716 and in the test with WM3526 were 100%, 100% and 94.9%, respectively.
In the case of `O=C(Nc1cc(C(F)(F)F)cc(C(F)(F)F)c1)c1cc(Cl)ccc1O` + O=C(Nc1ccccc1)c1cc([N+](=O)[O-])ccc1Cl [GW9662] (first compound 0.08 µM, partner dose 10 µM), the cell count with SkMel28 amounted to 86.5%; in the test with SkMel2 it was 108%; in the test on SkMel30, 78.8%; in the test on SkMel5 it was 92.6%; with UACC257 it was 71.3%; with UACC62, 67.4%. In addition, the cell count with WM115 was 81%; in the test on WM1716 it was 86.6%; in the test on WM3526 it was 84.9%.
For the compound `O=C(O)[C@@H]1[O][Sb](=[O])([O][Sb]2(=[O])[O][C@H]([C@H](O)CO)[C@H](O)[C@H](C(=O)O)[O]2)[O][C@H]([C@H](O)CO)[C@@H]1O` (stereo not given in full) [stibogluconate] + Clc1ccc(Nc2nnc(Cc3ccncc3)c3ccccc23)cc1 [vatalanib] (first compound 10 µM, partner dose 10 µM), the cell count stood at 86.5% in the test with SkMel28; 92.7% with SkMel2; 98.8% with SkMel30; 63.6% in the test on SkMel5; 74.9% with UACC257; 68.9% in the test with UACC62. Moreover, the cell count in the test on WM115 worked out at 82.9%; in the test on WM1716, 78.7%; with WM1745, 88%; in the test on WM3526, 72.2%.
Consider `O=C(O)c1ccc2c(c1)nc(Nc1cccc(Cl)c1)c1ccncc12` + O=C(Nc1ccccc1)c1cc([N+](=O)[O-])ccc1Cl [GW9662] (first compound 2 µM, partner dose 10 µM), for which the cell count in the test with SkMel28 came to 43.9%; in the test on SkMel2, 64%; in the test on SkMel30 it was 69.9%; in the test on SkMel5, 73.7%; in the test with UACC257, 72.1%; with UACC62, 70.1%. Also, the cell count was found to be 50.9% in the test on WM115, 82.1% in the test with WM1716 and 58.8% in the test with WM3526.
With `O=C(O)c1ccc2c(c1)nc(Nc1cccc(Cl)c1)c1ccncc12` + Oc1nc(-c2ccc(C(F)(F)F)cc2)nc2c1CSCC2 [XAV939] (first compound 2 µM, partner dose 10 µM), the cell count in the test on SkMel28 is 85.2%; with SkMel2, 83.9%; in the test on SkMel30, 76.1%; with SkMel5, 67.4%; in the test with UACC257, 88.7%; in the test with UACC62, 82.7%. The cell count in the test with WM115 amounted to 99.6%; with WM1716 it was 69.1%; in the test with WM3526 it was 83%.
Consider `O=C(Nc1cc(C(F)(F)F)cc(C(F)(F)F)c1)c1cc(Cl)ccc1O` + c1cc(-c2cnn3cc(-c4ccc(OCCN5CCCCC5)cc4)cnc23)ccn1 [Dorsomorphin] (first compound 0.08 µM, partner dose 2 µM), for which the cell count with SkMel28 is 91%; with SkMel2, 95.4%; in the test on SkMel30, 117%; with SkMel5, 76.2%; in the test with UACC257 it was 69.1%; with UACC62, 78.5%. In addition, the cell count turned out to be 93.7% in the test on WM115, 102% in the test on WM1716 and 91% in the test on WM3526.
As for `O=C(Nc1ccccc1)c1cc([N+](=O)[O-])ccc1Cl` + Cn1cc(/C=C2\C(=O)Nc3cccnc32)c2ccccc21 [GW441756] (first compound 10 µM, partner dose 2 µM), the cell count with SkMel28 is 82.4%; in the test with SkMel2, 101%; in the test with SkMel30 it was 74.3%; in the test with SkMel5, 87%; with UACC257, 98.8%; in the test on UACC62, 65.3%. Besides, the cell count with WM115 stood at 74%; in the test on WM1716, 109%; with WM1745, 73.4%; in the test on WM3526, 92.4%.
With `O=C(O)c1ccc2c(c1)nc(Nc1cccc(Cl)c1)c1ccncc12` + CCN(CC)CCCCNc1ncc2cc(-c3cc(OC)cc(OC)c3)c(NC(=O)NC(C)(C)C)nc2n1 [PD173074] (first compound 2 µM, partner dose 0.5 µM), the cell count is 91.5% with SkMel28; 86.4% in the test with SkMel2; 96.4% in the test on SkMel30; 86.5% in the test on SkMel5; 109% in the test on UACC257; 87.4% in the test on UACC62. Moreover, the cell count in the test with WM115 was determined as 97.3%; in the test with WM1716, 101%; in the test on WM3526 it was 88.6%.
As to `O=C(O)[C@@H]1[O][Sb](=[O])([O][Sb]2(=[O])[O][C@H]([C@H](O)CO)[C@H](O)[C@H](C(=O)O)[O]2)[O][C@H]([C@H](O)CO)[C@@H]1O` (stereo not given in full) [stibogluconate] + COc1ccc2c(c1)CCC1C2CCC2(C)C(NCCCCCCN3C(=O)C=CC3=O)CCC12 [U73122] (first compound 10 µM, partner dose 2 µM), the cell count turned out to be 113% with SkMel28; 92.8% in the test on SkMel2; 127% in the test on SkMel30; 114% in the test on SkMel5; 114% in the test with UACC257; 102% in the test on UACC62. Further, the cell count in the test with WM115 worked out at 87.2%; with WM1716, 97.8%; in the test with WM3526 it was 95.1%.

(Values after the supplement of paper PMC4604168 (melanoma cell lines).)
